# Assay results published in PubChem BioAssay AID588855 (National Center for Advancing Translational Sciences (NCATS), 2011).
# Out of some 410,000 compounds screened, about 5,000 (1.2%) were called active. Inconclusive means that the source gave no clear call. Such entries were picked first, then a sample of the others. The call rests on the fitted dose curve; in most records, active means well fitted inhibition curve with a large enough effect; inconclusive means small, poorly fitted or top-dose-only effect; inactive means no such curve, though single readings can be large or run the other way. Potencies of inconclusive entries are doubtful fits and often do not repeat.
# Experiment: qHTS for Inhibitors of TGF-b; further: nearly all actives have a fitted effect of over 65% in size
# Settings: HepG2 CAGA-GFP TGF-b/SMAD3 reporter, GFP fluorescence, 18 h, TGF-beta stimulated, 500 pg/mL final; series mostly up to 46.1 µM
# Outline: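 HEPG2 CAGA-GFP reporter cells (1000/well, DMEM with 1% FBS) received compounds, then recombinant TGF-beta at 500 pg/mL final for 18 hours at 37 degrees C. Per-cell GFP summed per well was normalised to unstimulated and stimulated DMSO controls before curve fitting.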
# Potency means the concentration at half of the fitted maximal effect; tags describe the fitted curve by direction and shape.
row,SMILES,Potency
1,O=C(Oc1ccc2ccc(OC(=O)N3CCCCCC3)cc2c1)N1CCCCCC1,"inconclusive: 3.16 µM [inhibitor, single point]"
2,COc1cc2c(cc1OC)C(C(=O)NC(C)C)C1CCCCN1C2=O (stereo not given),inactive
3,COc1cccc(-c2nn(Cc3ccccc3)cc2C(=O)O)c1,inactive
4,Cc1ccc(N2CCNCC2C)cc1 (stereo not given),"inconclusive: 35.5 µM [inhibitor, single point]"
5,Cc1cc2ccccc2n1-c1ccc(C(=O)N2CCC(C(=O)NCc3ccc(Cl)cc3)CC2)s1,"inconclusive: 5.62 µM [inhibitor, full curve]"
6,O=c1[nH]c(=O)n(Cc2ccco2)c(O)c1C=NCc1cccs1,"inconclusive: 7.08 µM [inhibitor, full curve, poor fit]"
7,COc1ccc(C2=CC(c3ccc4c(c3)OCO4)c3c(c4ccccc4oc3=O)O2)cc1OC (stereo not given),"inconclusive: 10 µM [inhibitor, partial curve, poor fit]"
8,O=c1c2ccccc2nc(/C=C/c2ccccc2)n1-c1ccc(O)cc1,"inconclusive: 35.5 µM [inhibitor, single point]"
9,CCN(CC)c1ccc(/C=C/[N+](=O)[O-])cc1,"inconclusive: 35.5 µM [inhibitor, single point]"
10,C[C@H]1CC[C@@H]2[C@@H](C)[C@H]3C(CC4C5CC=C6CC(O[C@@H]7O[C@H](CO)C(O[C@@H]8O[C@@H](C)[C@H](O)[C@@H](O)[C@H]8O)[C@H](O)[C@H]7O[C@@H]7O[C@@H](C)[C@H](O)[C@@H](O)[C@H]7O)CC[C@]6(C)C5CC[C@@]43C)N2C1 (stereo not given in full),active: 14.1 µM
11,O=C(N[C@H]1CP(=O)(Oc2ccccc2)O[C@H](COCc2ccccc2)[C@H]1O)C(Cl)(Cl)Cl (stereo not given in full),"inconclusive: 1.12 µM [inhibitor, full curve]"
12,O=C1NC(=S)N(c2ccccc2)C(=O)/C1=C/c1ccco1,inactive
13,Clc1cc(I)cc(Cl)c1NC1=NCCN1,inactive
14,CCN1/C(=C/C=C/C2=[N+](CC)c3ccccc3C2(C)C)C(C)(C)c2ccccc21,"inconclusive: 0.891 µM [inhibitor, partial curve, poor fit]"
15,COC(=O)C1=C(c2ccc(F)cc2F)C[C@@H]2CC[C@H]1N2C(=O)NCCOc1ccccc1Cl,inactive
16,Nc1c(C(=O)NC2CCCC2)c2nc3ccccc3nc2n1CC1CCCO1 (stereo not given),"inconclusive: 35.5 µM [inhibitor, single point]"
17,Cc1ccc(CNC2=NCCS2)cc1,inactive
18,CSCCC(c1nnnn1-c1c(C)cccc1C)N1CCC2(CC1)C(=O)NCN2c1ccccc1 (stereo not given),active: 11.2 µM
19,Cc1ccc(C(=O)Nc2ccccc2)cc1S(=O)(=O)N1CCCC1,inactive
20,C[N+]1(C)CCN(c2ccccc2)CC1,inactive
21,O=C(Nc1nccs1)C(Cl)(Cl)Cl,inactive
22,CCCCC/C(=N\O)c1c[nH]c2ccccc12,"inconclusive: 8.91 µM [inhibitor, partial curve, poor fit]"
23,c1cc2c3c(cccc3c1)CC2,inactive

row,SMILES,Potency
1,O=C(O)CCC(=O)N1N=C(c2c(-c3ccccc3)c3cc(Cl)ccc3[nH]c2=O)CC1c1ccco1 (stereo not given),"inconclusive: 35.5 µM [inhibitor, single point]"
2,C[C@]12CCC3C(CC[C@H]4C[C@@H](O)CC[C@]34C)[C@H]1C=CC2=O (stereo not given in full),"inconclusive: 17.8 µM [inhibitor, single point]"
3,CCOC(=O)[C@]12Cc3cc(C)ccc3[C@H]1N(Cc1ccccc1)C(=O)c1ccccc12,active: 10 µM
4,O=C(c1ccc(N2CC3CC(C2)c2cccc(=O)n2C3)c([N+](=O)[O-])c1)N1CCCC1 (stereo not given),"inconclusive: 5.62 µM [inhibitor, single point]"
5,CS(=O)(=O)c1ccc(C2=C(CNC(=O)c3cccs3)[C@H]3CC[C@@H](C2)N3CCOc2ccccc2)cc1,inactive
6,C#CCN1CCN(c2cccc(C(F)(F)F)c2)CC1,"inconclusive: 7.08 µM [inhibitor, partial curve, poor fit]"
7,CC(C)COC(=O)n1c(=O)oc2ccc(S(=O)(=O)N3CCCCC3)cc21,"inconclusive: 12.6 µM [inhibitor, single point]"
8,COc1ccc(Cn2c(O)c(/C=N/NC(=O)c3ccccc3O)c(=O)[nH]c2=O)cc1,"inconclusive: 3.98 µM [inhibitor, full curve, poor fit]"
9,COc1ccc2c(c1)c(C(=O)CN1CCN(C)CC1)c(C)n2Cc1ccccc1,inactive
10,COc1ccc(C(=O)C2CCCN(CC3CCCCC3)C2)cc1OC (stereo not given),"inconclusive: 20 µM [inhibitor, single point]"
11,CN1CCN(c2ccc(C(N)=O)cc2[N+](=O)[O-])CC1,"inconclusive: 3.55 µM [inhibitor, single point]"
12,Clc1ccccc1CNCCc1c[nH]c2ccccc12,inactive
13,O=C(NC1CCCCC1)N1Cc2cc(N3CCCCC3)ccc2-n2nncc2C1,"inconclusive: 28.2 µM [inhibitor, single point]"
14,CCCCOP(=O)(c1ccc(N(C)C)cc1)C(O)c1ccc(C(C)C)cc1 (stereo not given),"inconclusive: 35.5 µM [inhibitor, single point]"
15,COc1nc2ccccc2c(=O)n1-c1ccc(Cl)cc1,inactive
16,CCCNC(=O)c1c(N)n(Cc2ccc3c(c2)OCO3)c2nc3ccccc3nc12,"inconclusive: 5.01 µM [inhibitor, single point]"
17,CCOc1ccc(S(=O)(=O)N2CCC(C(=O)N3CCOCC3)CC2)cc1C,"inconclusive: 17.8 µM [inhibitor, single point]"
18,O=C(c1ccc2c(c1)OCO2)N1CCC2(CC1)OCCO2,inactive
19,CC(=O)c1ccc(OC(=O)N2CCOCC2)cc1,"inconclusive: 2.82 µM [inhibitor, partial curve]"
20,Cc1cc(C)c(Cn2c(C(=O)O)c(C=O)c3ccccc32)c(C)c1,inactive
21,CCCOC(=O)C1C2c3ccccc3C(c3ccccc32)C1C(=O)O (stereo not given),"inconclusive: 0.631 µM [inhibitor, full curve, poor fit]"
22,Cc1ncc(CN2CCCC(C(=O)c3cccc(Cl)c3)C2)s1 (stereo not given),"inconclusive: 10 µM [inhibitor, partial curve]"
